Measured values reported in PubChem BioAssay AID1347055 (National Center for Advancing Translational Sciences (NCATS), 2019).
Where “and” joins values, the source holds several entries; their conditions need not be identical. Equal values may be shown once. Screen size: about 54,000 compounds; about 120 (0.22%) were called active. Inconclusive means that the source gave no clear call. Such entries were picked first, then a sample of the others. Calls follow the shape of the dose curve; as a rule, active = well fitted inhibition curve with a large enough effect; inconclusive = small, poorly fitted or top-dose-only effect, or effect the other way; inactive = flat fitted curve, though single readings scatter. Potencies beside an inconclusive call are fits to weak or partial responses and may not hold up.

Each molecule was assayed against Fumarate hydratase, mitochondrial (Homo sapiens) (UniProt P07954) (assay: Identification of activators of human fumarate hydratase by quantitative high-throughput screening). Conditions: FH coupled MDH/diaphorase resazurin fluorescence, 15 min; series mostly up to 79.9 µM.
Also: the screen sought activators but most active calls are inhibition curves; nearly all actives have a fitted effect of over 45% in size.
Potency is read from the fitted curve at half-maximal effect; tags tell the direction and shape of the fitted curve.

UniProt P07954, sequence (P07954 whole entry, looked up): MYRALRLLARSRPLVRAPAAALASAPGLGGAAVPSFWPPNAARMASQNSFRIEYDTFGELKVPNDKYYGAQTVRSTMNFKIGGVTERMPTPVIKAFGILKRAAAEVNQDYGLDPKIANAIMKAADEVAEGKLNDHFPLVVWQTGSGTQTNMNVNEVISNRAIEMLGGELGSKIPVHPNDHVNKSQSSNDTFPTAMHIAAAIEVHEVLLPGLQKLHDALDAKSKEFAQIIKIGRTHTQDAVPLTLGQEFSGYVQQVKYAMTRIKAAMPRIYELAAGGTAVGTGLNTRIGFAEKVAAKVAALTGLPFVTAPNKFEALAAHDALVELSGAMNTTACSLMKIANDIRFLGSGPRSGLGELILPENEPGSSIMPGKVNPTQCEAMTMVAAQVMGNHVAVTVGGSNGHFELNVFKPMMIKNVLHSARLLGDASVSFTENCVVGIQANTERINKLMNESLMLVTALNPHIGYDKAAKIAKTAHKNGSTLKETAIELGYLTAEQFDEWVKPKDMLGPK

SMILES | Potency
Cc1nc(-c2ccccc2)sc1CCNS(=O)(=O)c1ccc(Br)cc1 | inconclusive: 28.2 µM [inhibitor, single point]
CN(C)[C@@H]1CCc2[nH]c3ccc(NC(=O)c4ccc(F)cc4)cc3c2C1 | inactive
CCn1cc(C(=O)N2CCN(c3cccc(C)c3C)CC2)c2cc(OC)c(OC)cc2c1=O | inactive
O=C(NCCCN1CCN(c2ccccc2)CC1)c1ccc2nc(Cc3ccccc3)oc2c1 | inactive
CC(CN1c2ccccc2Sc2ccccc21)N(C)C (stereo not given) | inconclusive: 39.8 µM [inhibitor, single point]
COc1cc(-c2nnc(SCCOc3cc(C)cc(C)c3)o2)cc(OC)c1OC | inconclusive: 35.5 µM [inhibitor, partial curve]
Cc1cccc(Cn2cccc2CNS(=O)(=O)c2ccc(Br)cc2)c1 | inconclusive: 31.6 µM [inhibitor, single point]
COc1ccc(NS(=O)(=O)c2ccc3[nH]c4c(c3c2)CCCC4)cc1OC | inconclusive: 28.2 µM [inhibitor, single point]
CCn1ccc2c(OCC(=O)Nc3ccccc3C(F)(F)F)cccc2c1=O | inactive
Cc1ccc(Cl)cc1N1CCN(CCCNC(=O)c2ccc3nc(N4CCCCC4)sc3c2)CC1 | inconclusive: 28.2 µM [inhibitor, partial curve, poor fit]
COc1ccc(C2c3c(n(C)c4ccccc34)C(=O)N2CC(=O)Nc2cccc(F)c2)cc1 (stereo not given) | inconclusive: 31.6 µM [inhibitor, single point]
CC12CCC3c4ccc(O)cc4CCC3C1CC(OC1OC(C(=O)O)C(O)C(O)C1O)C2O (stereo not given) | inactive
COc1cc(C2Nc3c(C)cc(C)cc3-c3cc(C)nn32)cc(OC)c1O (stereo not given) | inconclusive: 39.8 µM [inhibitor, partial curve]
COc1ccccc1Nc1c2c(nc3ccc(NC(=O)c4cccc(OC)c4OC)cc13)CCCC2 | inconclusive: 28.2 µM [inhibitor, single point]
COC(=O)c1ccc2c(=O)n(CCCCCC(=O)N3CCN(c4cc(Cl)ccc4C)CC3)c(=O)[nH]c2c1 | inactive
CC(C)(C)C1CCc2c(sc(NC(=O)CCC(=O)O)c2C(=O)Nc2ccccc2C(F)(F)F)C1 (stereo not given) | inconclusive: 31.6 µM [inhibitor, partial curve, poor fit]
Cc1ccccc1OCC(=O)Nc1ccc(OCc2cc(=O)n3ccsc3n2)cc1 | inactive
Cc1cccc(-c2nc(CSCC(=O)N3CCN(c4ccccc4)CC3)c(C)o2)c1 | inconclusive: 50.1 µM [inhibitor, single point]
FC(F)(F)c1cccc(-c2nnn3c2nc(NC2CCCCC2)c2ccccc23)c1 | inconclusive: 44.7 µM [inhibitor, partial curve, poor fit]
Cc1cccc(N(C)c2nc3ccc(C)cc3n3cnnc23)c1 | inactive

SMILES | Potency
CCc1cccc(NC(=O)Cn2cc(C(=O)c3ccncc3)c(=O)c3cc(C)c(C)cc32)c1 | inconclusive: 25.1 µM [inhibitor, single point]
CCn1c(=O)c2cc(C(=O)NCCCN(C)Cc3ccccc3)sc2c2ccccc21 | inconclusive: 31.6 µM [inhibitor, single point]
CCCCCCc1cc2cc(-c3nnc(-c4ccc(C)cc4)o3)c(=O)oc2cc1O | inconclusive: 35.5 µM [inhibitor, partial curve]
C[C@H]1CC[C@@]2(OC1)O[C@H]1CC3C4CC=C5C[C@H](O)C[C@@H](O[C@@H]6O[C@@H](C)[C@H](O)[C@@H](O)[C@H]6O[C@@H]6O[C@@H](C)[C@H](O)[C@@H](O)[C@H]6O)[C@]5(C)C4CC[C@]3(C)[C@H]1[C@@H]2C (stereo not given in full) | inactive
Nc1ncnc2c1c(-c1cccc(OCc3ccccc3)c1)cn2C1CC(CN2CCCC2)C1 (stereo not given) | inactive
COc1cccc(C2c3c(-c4ccccc4O)n[nH]c3C(=O)N2CCc2ccc(OC)c(OC)c2)c1 (stereo not given) | inconclusive: 35.5 µM [inhibitor, partial curve, poor fit]
O=c1[nH]c([C@@H]2CCCN2)nc2c1oc1ccc(Cl)cc12 | inactive
CSc1ccc(CCNC(=O)CCc2c(C)nc3cc(-c4ccccc4)nn3c2C)cc1 | inactive
CC(C)c1ccc2oc(-c3cccc(NC(=O)c4ccc5c(c4)OCCO5)c3)nc2c1 | inconclusive: 31.6 µM [inhibitor, partial curve, poor fit]
CCN1c2cc(C)ccc2-n2cccc2C12CCN(C(=O)Nc1cc(OC)c(OC)c(OC)c1)CC2 | inconclusive: 8.91 µM [inhibitor, partial curve]
CCOC(=O)c1cc(-c2ccccc2)n(-c2cccc(C(=O)N(CC)c3ccccc3)c2)c1C | inconclusive: 2.51 µM [inhibitor, partial curve, poor fit]
Oc1ccc(C(O)CNCCCCCCNCC(O)c2ccc(O)c(O)c2)cc1O (stereo not given) | inactive
O=C(Nc1cc(Cl)cc(Cl)c1)c1cc(S(=O)(=O)N2CCc3ccccc3C2)ccc1F | inconclusive: 3.16 µM [inhibitor, single point]
CN1CCN(c2ccc(C(=O)Nc3n[nH]c4ccc(Cc5cc(F)cc(F)c5)cc34)c(NC3CCOCC3)c2)CC1 | inconclusive: 56.2 µM [inhibitor, partial curve, poor fit] and inconclusive: 25.1 µM [inhibitor, partial curve, poor fit]
COc1ccc(CNC(=O)c2cc(-c3ccc(C)c(C)c3)n[nH]2)cc1 | inconclusive: 35.5 µM [inhibitor, single point]
CCc1cccc(C)c1Nc1c(-c2ccc(N(C)C)cc2)nc2cnccn12 | inconclusive: 35.5 µM [inhibitor, partial curve, poor fit]
Cc1ccc(-c2nc(CS(=O)(=O)CC(=O)N3CCN(c4ccccc4)CC3)c(C)o2)cc1 | inconclusive: 56.2 µM [inhibitor, partial curve, poor fit]
Cc1ccc(Cl)cc1N1CCN(C(=O)CCc2nnc3n(C)c(=O)c4ccccc4n23)CC1 | inconclusive: 20 µM [inhibitor, partial curve, poor fit]
CC(=O)N1CCc2cc(S(=O)(=O)NC(Cc3ccccc3)C(=O)Nc3cc(C)cc(C)c3)ccc21 (stereo not given) | inactive
CCC(C)CC(=O)OC1C(=O)C(CO)=CC(O)C1C(C)C (stereo not given) | inactive

SMILES | Potency
Cc1oc2ncnc(N3CCOCC3)c2c1C(=O)Nc1ccc(Br)cc1F | inactive
Oc1c(C(c2ccc(Cl)cc2Cl)N2CCN(Cc3ccccc3)CC2)sc2nc(-c3ccco3)nn12 (stereo not given) | inconclusive: 10 µM [inhibitor, full curve]
Cc1ccccc1OCCSc1nc2ccc(NC(=O)c3ccco3)cc2s1 | inconclusive: 28.2 µM [inhibitor, partial curve, poor fit]
Cc1ccc(-c2cc(NC(=O)C(C)Oc3ccccc3F)on2)cc1 (stereo not given) | inconclusive: 50.1 µM [inhibitor, single point]
Cc1ccc(CNC(=O)c2c[nH]n3c(=O)c(Cc4ccc(F)cc4Cl)c(C)nc23)cc1 | inconclusive: 28.2 µM [inhibitor, single point]
CN1CCN(C(=O)CN[C@@H]2C[C@H]2c2ccc(OCc3ccccc3)cc2)CC1 | inactive
COc1cc(N2CCC(N3CCN(C)CC3)CC2)ccc1Nc1ncc(Cl)c(Nc2ccccc2S(=O)(=O)C(C)C)n1 | inconclusive: 35.5 µM [inhibitor, partial curve, poor fit]
COC(=O)c1scc(-c2ccccc2)c1S(=O)(=O)Nc1ccc(C)c(Cl)c1 | inconclusive: 35.5 µM [inhibitor, partial curve]
COc1cccc(NC(=O)CSC2=Nc3ccccc3C3=NC(CC(=O)NCc4ccccc4OC)C(=O)N23)c1 (stereo not given) | inconclusive: 50.1 µM [inhibitor, single point]
COc1ccc(Cn2c(CCC(=O)Nc3ccc(OC)c(Cl)c3)nc3cccnc32)cc1 | inconclusive: 35.5 µM [activator, single point]
COc1ccc(CNC(=O)c2cc3oc4ccccc4c3n2C)cc1OC | inconclusive: 44.7 µM [inhibitor, single point]
COC(=O)c1ccc(NC(=O)NC(C)c2c(-n3cccc3)sc(C)c2C)cc1 (stereo not given) | inconclusive: 50.1 µM [inhibitor, partial curve, poor fit]
CCOC(=O)c1c(S(=O)(=O)N2CCN(c3cccc(C(F)(F)F)c3)CC2)c(C)n(C)c1C | inactive
CCOC(=O)c1ccc(N2C(=O)c3n[nH]c(-c4cccs4)c3C2c2ccc(OC)cc2OC)cc1 (stereo not given) | inconclusive: 31.6 µM [inhibitor, partial curve, poor fit]
Cc1ccc(-n2[nH]c(C)c(N=Nc3cccc(-c4cccc(C(=O)O)c4)c3O)c2=O)cc1C | inconclusive: 15.5 µM [inhibitor, partial curve]
CCOC(=O)c1ccc(N2C(=O)c3[nH]nc(-c4ccccc4)c3C2c2ccc(C(C)C)cc2)cc1 (stereo not given) | inconclusive: 39.8 µM [inhibitor, partial curve, poor fit]
CC(C)c1ccc(NC(=O)C(Cc2ccccc2)n2cccc2)cc1 (stereo not given) | inconclusive: 35.5 µM [inhibitor, single point]
COc1cccc(C(=O)NCCc2sc(-c3cccc(C)c3)nc2C)c1 | inactive
CCOC(=O)c1ccc(NC(=O)c2sc3nc4n(c(=O)c3c2C)CCC4)cc1 | inconclusive: 39.8 µM [inhibitor, single point]
COc1ccc(-c2csc3ncnc(Nc4cccc(F)c4)c23)cc1 | inconclusive: 39.8 µM [inhibitor, single point]
